Results on 58 sequences are retold here after the supplement of paper PMC5655136.

The data set relates to NB7. Nature of the data set: fold depletion of shRNA, plasmid library share / infected cells without Dox share (9 days) (ratio); higher = more depleted after infection (more toxic, leaky expression from a Tet-inducible vector; NB7 is a neuroblastoma line without caspase-8).
Setting [1] is: shRNA pool: CD95 ORF + CD95 3'UTR + Venus libraries.
Setting [2] is: shRNA pool: CD95L ORF + CD95L 3'UTR + Venus libraries.

Values come from read counts of a selection and are noisy.
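Further: shRNA barcodes quantified by deep sequencing of PCR amplicons from cellular DNA, counts expressed as percent of each subpool, ratio averaged over two biological duplicates.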

CTGCTCTCAGAGAAAGTAGCT: the “fold depletion of shRNA” value under setting [1] is 2.36.

In the case of CATCGAGGACGGCGGCGTGCA, the “fold depletion of shRNA” value came to 0.453 under setting [2] and 0.385 under setting [1]. Regarding ATATATGTGTATGCATTTTAC, the “fold depletion of shRNA” value under setting [1] worked out at 1.12. For the sequence GACTCATTTCATTCCTAACAC, the “fold depletion of shRNA” value under setting [2] came out at 1.85. As for TTATAAACTGAAGCAGATACC, the “fold depletion of shRNA” value under setting [1] turned out to be 1.17. Turning to ACGTCCAGGAGCGCACCATCT, the “fold depletion of shRNA” value runs as follows: under setting [2], 1.43; under setting [1], 1.3. For CATCAACTCCAAGGGATTGGA, the “fold depletion of shRNA” value under setting [1] is 0.621.

In the case of TTACGTCTGTTGCTAGATTAT, under setting [1], the “fold depletion of shRNA” value was found to be 1.27. For GGAAAATATGGGTTGCATTTG, the “fold depletion of shRNA” value under setting [2] was 0.403. On to CGGCATGGACGAGCTGTACAA, for which the “fold depletion of shRNA” value is 3.89 under setting [2] and 2.14 under setting [1]. Turning to GTGATGAAGGACATGGCTTAG, the “fold depletion of shRNA” value under setting [1] is 2.18. Regarding TGATCATTTATATGTCAACGT, the “fold depletion of shRNA” value under setting [2] came out at 1.46.

For TGAGGATTTAAGGGATGGAAA, the “fold depletion of shRNA” value under setting [2] was 3.11. For AAAGATCTCAAAAAAGCCAAT, the “fold depletion of shRNA” value under setting [1] worked out at 1.72.

As for ATTGGTGTCATATTATACAAT, the “fold depletion of shRNA” value under setting [1] turned out to be 0.817. As for AACTTCAAGATCCGCCACAAC, the “fold depletion of shRNA” value came out at 1.32 under setting [2] and 1.35 under setting [1]. For TTTGTGACATGTCATGAACCC, the “fold depletion of shRNA” value under setting [1] worked out at 21.4.

Consider GCATCTAACATATGATTCTGT, for which, under setting [1], the “fold depletion of shRNA” value worked out at 3.14. For ACATGGTTGTGACCTGAGGAT, the “fold depletion of shRNA” value under setting [2] was 10.5. With CAAGGACATTACTAGTGACTC, the “fold depletion of shRNA” value under setting [1] turned out to be 1.45. As to TGCACACAGCATCATCTTTGG, the “fold depletion of shRNA” value under setting [2] is 1.49.

With CAGTGAGGGTCTTCTTACATG, the “fold depletion of shRNA” value under setting [2] was determined as 0.589. The same measure, in the same setting: the result for CTCCGAGAGTCTACCAGCCAG reads 3.73. With GATCATATTTATGTAAAGTAT, under setting [1], the “fold depletion of shRNA” value worked out at 0.88.

Consider GGCAGTGTTCAATCTTACCAG, for which the “fold depletion of shRNA” value under setting [2] worked out at 0.777. On to TGCAGAAAGCACAGAAAGGAA, for which the “fold depletion of shRNA” value under setting [1] is 1.19. Take TCAAGGTGGGCCTTGCTACCT: under setting [2], the “fold depletion of shRNA” value came out at 7.2. In the case of GTCTTCTTACATGCATTTGAG, under setting [2], the “fold depletion of shRNA” value was determined as 2.35. Regarding GCATTTTTGTGAAATGAAAAC, the “fold depletion of shRNA” value under setting [2] was found to be 0.602. Regarding TACTGGGTACATTTTATCATT, under setting [1], the “fold depletion of shRNA” value is 0.814. AGAGAAGCACTTTGGGATTCT: the “fold depletion of shRNA” value under setting [2] was 0.911.

Consider ACCGCCGACAAGCAGAAGAAC, for which the “fold depletion of shRNA” value is 1.09 under setting [2] and 1.05 under setting [1]. Regarding TGAACCGCATCGAGCTGAAGG, the “fold depletion of shRNA” value under setting [1] was 0.985. In the case of CTCTCTCTGGTCAATTTTGAG, the “fold depletion of shRNA” value under setting [2] turned out to be 0.907. On to CAACAGCCACAACGTCTATAT, for which the “fold depletion of shRNA” value under setting [2] was 2.44 and the “fold depletion of shRNA” value under setting [1] came to 1.55. With ACTCTAATAGTGCTTAAAAAT, under setting [2], the “fold depletion of shRNA” value came out at 0.409. Consider CTGGTCAAAGGAGGCCACCAC, for which, under setting [2], the “fold depletion of shRNA” value is 0.673. CGAGGGCGAGGGCGATGCCAC: the “fold depletion of shRNA” value by setting is: under setting [2], 0.701; under setting [1], 0.874. As for GCCGCCGCCGCCACCACTGCC, under setting [2], the “fold depletion of shRNA” value was 0.259. Take GTGGTGCCCATCCTGGTCGAG: the “fold depletion of shRNA” value under setting [2] amounted to 0.802 and the “fold depletion of shRNA” value under setting [1] came to 0.567. As for GCTGATCTGCACCACCGGCAA, the “fold depletion of shRNA” value under setting [2] came to 2.6 and the “fold depletion of shRNA” value under setting [1] turned out to be 2.66.

For the sequence CAGTTGAGACTCAGAACTTGG, the “fold depletion of shRNA” value under setting [1] came to 0.502. With CACCGGCAAGCTGCCCGTGCC, the “fold depletion of shRNA” value amounted to 1.34 under setting [2] and 0.592 under setting [1]. With AACAGATAAGCAAGAGAGATG, the “fold depletion of shRNA” value under setting [2] was determined as 0.583. For the sequence AGTTCTGAGTATATGCAATTA, the “fold depletion of shRNA” value under setting [1] is 1.26.

On to GTCCAAAAGTGTTAATGCCCA, for which the “fold depletion of shRNA” value under setting [1] is 2.12. Regarding GAAGGGTGGCCTTGTGATCAA, under setting [2], the “fold depletion of shRNA” value came to 0.545. The same measure, in the same setting: for AATATAATAAATATTTATGTA the value was 0.97; for TGTTCTACACTCATCTTAGTG, 1.83.

With ATGAAGGACATGGCTTAGAAG, the “fold depletion of shRNA” value under setting [1] is 1.23. As to TTGGGAAAACAAACTTCATCA, under setting [1], the “fold depletion of shRNA” value turned out to be 1.88.

Regarding ACAAGTTCAGCGTGTCCGGCG, the “fold depletion of shRNA” value is, setting by setting: under setting [2], 0.986; under setting [1], 1.73. Turning to TGAGCAGGAGAGTATTACTAG, under setting [1], the “fold depletion of shRNA” value was determined as 1.79. As to ACAGCATGTGTATTTCCAGTG, the “fold depletion of shRNA” value under setting [2] is 1.71. On to CTGTAAATGTAAACTGTGAAG, for which the “fold depletion of shRNA” value under setting [1] turned out to be 1.6. Take CTTGCATAATAAGCTAAAGAG: the “fold depletion of shRNA” value under setting [2] is 0.594.

For the sequence TGAGGAATCTCAGACGTTTTT, under setting [2], the “fold depletion of shRNA” value stood at 2.13. CAACTACAAGACCCGCGCCGA: the “fold depletion of shRNA” value was found to be 1.24 under setting [2] and 1.38 under setting [1].
